Assay results reported in the supplement of paper PMC11417369.
± gives the standard deviation of the averaged measurements. The list shows a part of the results.

tested on: PfAP2-I AP2 domain 3 (GST-tagged); assay: gcPBM binding intensity (ln(normalized median fluorescence intensity)); higher = stronger DNA binding
Method in brief: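 Each value is the highest Masliner-normalised natural-log median intensity across replicate spots of either orientation of a probe. The probes were primer-extended double-stranded 36-bp intergenic genomic sequences on an Agilent 4 × 180k array, alongside negative controls, exposed for 1 h to GST-tagged P. falciparum DNA-binding domains expressed in E. coli. Bound protein was picked up with Alexa488 anti-GST antibody and scanned at 488 nm.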

Row | Sequence | gcPBM binding intensity (ln)
1 | AGTAATAATATAATTTGTACATATATATATTATAAA [XGTACX_site7138] | 7.65 ± 0.3
2 | TACAAAAATGTAGTCACACATATGTATACTTTTATG [CACACA_site5607] | 7.49 ± 0.44
3 | AGTTTTATGTAGTGTTGTACTTTATACAAATATATA [XGTACX_site990] | 7.87 ± 0.35
4 | TTTCTAATTTATATCACACACATATATAAATAGTAA [CACACA_site6156] | 7.91 ± 0.44
5 | ATATATATAATTTAAAGTACATATTTAAGAATGAAA [XGTACX_site2238] | 8.06 ± 0.49
6 | GACATTAAAATGAAATATACATATATATGTATATAT [TGCATGCA_negctrl_site601] | 7.63 ± 0.43
7 | TTACATTTTTGAAATAGATACATACACGTGTATGTA [CACACA_negctrl_site1311] | 7.58 ± 0.58
8 | AAAATTAACCGTAACACACACACATATATATATATA [CACACA_site3964] | 9.61 ± 0.4
9 | TATATGTTTACTTAATGTACTTACATTTTTATAACA [XGTACX_site1100] | 7.67 ± 0.49
10 | AAACAAAAAAACTACAGTACTTTTTTCAATTCCCCT [XGTACX_site7541] | 7.8 ± 0.49
11 | TTATTAATTTTTATTTTTAAATCACAAAAGATATAA [CACACA_negctrl_site787] | 7.43 ± 0.4
12 | ACATAAATAATAAAAACACACATATGTACTTATATA [CACACA_site8581] | 7.84 ± 0.18
13 | CATATTTGTATATGCACACATAAATTTTTCCATTTC [CACACA_site3467] | 9.31 ± 0.26
14 | AAATTTTTAAACAGCACACATAAATATAATATATAT [CACACA_site2208] | 8.27 ± 0.21
15 | TCTTGTATACGGCATGCATGTTAGCACATACGGACA [TGCATGCA_site146] | 8.12 ± 0.72
16 | TTTTTAAAACCTTACATACACACAAATATATATATA [CACACA_site678] | 9.19 ± 0.057
17 | TGAATTCATAGCAGTTGTACATTGCATGAAGAAACG [XGTACX_site3312] | 8.01 ± 0.58
18 | TGTTCCGAAGGTTGTACACACATAGAAATATACATA [CACACA_site3874] | 7.98 ± 0.44
19 | AATACTTTTTATTTAGTGCATAAGAAAATATAAATC [GTGCAC_site9875] | 10.9 ± 0.44
20 | TATAAAATATGTATGAGGAATAAAATTAAAAAAAAA [TGCATGCA_negctrl_site178] | 7.62 ± 0.67
21 | AAAAAAAAAAATTCGGTGCAATGTAATTAATGTAAA [GTGCAC_site9588] | 9.675 ± 0.078
22 | TGGTAATACACATACACACACACATACACATATATA [CACACA_site7312] | 8.22 ± 0.34

Row | Sequence | gcPBM binding intensity (ln)
23 | AATTGAAAAATCAGCACACACACAAATACATACATA [CACACA_site3232] | 8.09 ± 0.4
24 | GCTATATATTACAATCGTACAATATATATATATATA [XGTACX_site6730] | 9.04 ± 0.59
25 | ATATATATATATATTACACACATGTGCAATTAAAAT [CACACA_site1778] | 9.79 ± 0.43
26 | AATATAAGAATATATACACACATAAATACATACATA [CACACA_site4128] | 7.63 ± 0.45
27 | CCTTTATAAAAAAGTAGTACACAATGAATTTATAAT [XGTACX_site5523] | 8.1 ± 0.3
28 | CAATACTAATTGTATACACACAAAAATATACCATAT [CACACA_site3326] | 7.64 ± 0.6
29 | AATTGATACCTTACATGTACATAATATATATAAATA [XGTACX_site321] | 8.25 ± 0.62
30 | GAACCATTTTTTGGTATACACACGTAATTATATAAT [CACACA_site8552] | 7.93 ± 0.092
31 | TTTTTACATACAAATTAACACACATATAGAAAAGAG [CACACA_site8570] | 8.58 ± 0.17
32 | TGTTAATTAAAACATCATTAATATTATTAAAAATAC [XGTACX_negctrl_site509] | 7.61 ± 0.44
33 | TCTTTTTTTACTTTCTTTTTTTTTTTTTTTTTTTTT [XGTACX_negctrl_site610] | 9.38 ± 0.057
34 | AATAAACATATATGTACACACATATACATATATATA [CACACA_site2848] | 8.03 ± 0.45
35 | TTTTTTTTTAATTATGCATGTAAATTATATATTATA [TGCATGCA_site335] | 8.55 ± 1.1
36 | TATTTATAATTAAATACACACATATATTATATATTT [CACACA_site616] | 7.5 ± 0.37
37 | TATATTAATTTATATCAACACACAAAATCAATATAC [CACACA_site8518] | 7.78 ± 0.54
38 | TTAGCTACACGCTAATGTACACAAATACAAAGAAAA [XGTACX_site3993] | 7.71 ± 0.51
39 | TATACGCATATATAAACACACAAAAAAAAAAAAAAA [CACACA_site2026] | 8.04 ± 0.77
40 | ATAAAATATTATATATATATATATATATATATATAT [CACACA_negctrl_site215] | 9.31 ± 0.74
41 | AAGAATGTTATATTATGATGCTGTCTTTTTTTAAGA [CACACA_negctrl_site251] | 7.46 ± 0.46
42 | AAATTATTTATATGTTGTACTTATCCATTTTTATAA [XGTACX_site7441] | 7.67 ± 0.57
43 | TAATTTTTTTTATTATGTACTTAATAAATGTTAATT [XGTACX_site365] | 7.63 ± 0.36
